These results are taken from ChEMBL document CHEMBL1157539, “Thousands of chemical starting points for antimalarial lead identification” (Nature, 2010).

Structures are written as SMILES. In all, about 13,000 compounds were measured (“IFI”: median about 4, highest 2% from about 17 on). The list shows a part of the results.

The nature of this assay: GSK_TCMDC: Inhibition Frequency Index (IFI). The number of non-kinase HTS assays where a compound showed > 50 % inhibition, expressed as a percentage of the number of such assays in which the compound was tested (-0 is zero). The assay is classed as functional.
As to `CCCCN(CCCC)CC(O)c1cc(-c2ccc(Cl)cc2)nc2c(Cl)cc(Cl)cc12` (configuration not stated), the IFI worked out at 0.75%.
The compound `C=CCNC(=O)CCCNC(=N)N` registered an IFI of 1.5%.
For `Cn1nc(-c2ccc(NC(=O)Nc3cc(C(F)(F)F)ccc3F)cc2)c2cnc(NCCCCN3CCCC3)nc21` the value was 9.3%; for `Fc1ccc(-c2cncc(Nc3ccncc3)n2)cc1`, 3.03%.
For `CC(C)CNC(=O)c1ccc(-c2cccc(CN3CCC(N4CCCC4)CC3)c2)nc1` the value was 0%.
With `Oc1ccc(CCNCCCCCCNCCc2ccc(-c3ccccc3)cc2)cc1O` the figure was 9.93%; with `O=C(NC1CCN(CCN2CCC(c3ccccc3C(F)(F)F)CC2)CC1)c1ccc(-c2ccc(Cl)cc2)cc1`, 7.27%; with `COc1cc(OC)c2c(c1Cl)O[C@]1(C2=O)C(=O)C(Cc2ccccc2)(Cc2ccccc2)C(=O)C[C@H]1C`, 1.47%.
Regarding `CC(=O)c1sc(NC(=O)Nc2ccc(C)cc2C)nc1C`, the IFI is -0%.
For `COc1cc(NC(=O)c2sc(-c3ccc(Cl)cc3)cc2NC(=O)N2CCCC2)ccc1OCCN1CCCC1` the value was 6.57%; for `Cc1cccn2c(=O)c3cc(C(=O)NC(C)c4ccccc4)c(=N)n(CCc4ccccc4)c3nc12` (configuration not stated), 1.74%.
`COc1cc2nc(NCCCO)nc(Nc3ccc(Oc4ccccc4)cc3)c2cc1OC` yielded an IFI of 9.35%.
In turn, `Cc1nc(NC2=NCN(CCCN3CCOCC3)CN2)nc2c(C)cccc12` came in with an IFI of 7.02%.
For `O=C(Cc1ccccc1)NC(CCN1CCC(N(C2CC2)S(=O)(=O)c2cccc(C(F)(F)F)c2)CC1)c1ccc(Cl)c(Cl)c1` (configuration not stated) the value was 2.82%.
For `CC(=Nc1ccc(Cl)c(Cl)c1)N(C)C` the value was 0.74%; for `O=C(NCCCCCN1CCC(c2c[nH]c3ccccc23)CC1)Nc1ccc(Br)cc1`, 6.38%.
With `COC(=O)Nc1nc2cc3c(cc2s1)OCCO3` the figure was 4.93%; with `CCOc1ccc(OCC)c(N2CCN(CCCCNC(=O)c3ccc(NC(=O)c4ccc(Cl)cc4)cc3)CC2)c1`, 1.79%; with `CS(=O)(=O)Nc1cccc(-c2cnc3[nH]cc(-c4ccc(CN)cc4)c3c2)c1`, 5.5%.
Take `Cc1cc(Nc2ccc(C)c(Cl)c2)n2ncnc2n1`: the IFI is 0.85%.
For `Cc1nc(O)c2c(ccc3ccc(CNc4ccc(C(=O)N[C@@H](CCC(=O)O)C(=O)O)c(F)c4)cc32)n1` the value was 1.47%.
For `CCC(Nc1noc(-c2c(-c3ccccc3)noc2C)n1)c1ccccc1` (configuration not stated) the value was 1.52%; for `CC(C)CC1c2[nH]c3ccccc3c2CCN1C(=O)CCc1ccccc1` (configuration not stated), 3.94%.
For `COc1ccc(-c2cccc(CNC3CCN(CC4Cn5c(=O)ccc6ccc(F)c4c65)CC3)c2)cc1` (configuration not stated) the value was 4.17%; for `O=C(/C=C/c1ccc(Cl)c(Cl)c1)NCCCCCCN1CCCN(C(=O)Nc2cc(Cl)cc(Cl)c2)CC1`, 4.96%.
For the compound `CCN(CC)c1ccc(NC(=S)NC2CCN(CCCCCNC(=O)/C=C/c3ccc(Cl)c(Cl)c3)CC2)cc1`, the IFI turned out to be 9.93%.
With `CCCN(CCC)CCCNc1ccc(C(=O)Nc2ccc(C)c(F)c2)cc1[N+](=O)[O-]` the figure was 3.62%; with `COc1ccc(S(=O)(=O)Nc2ccc(C(=O)NCc3ccccc3C(F)(F)F)cc2)cc1N1CCN(CC2CC2)CC1`, 19.4%; with `Cc1cccc2nc(-c3cccc(-c4ccc(NC(=O)C(C)C(=O)NC(C)C)cc4)c3)[nH]c12` (configuration not stated), 4.35%.
With `CS(=O)(=O)CCNCc1cccc(-c2cc3c(Nc4ccc(OCc5cccc(F)c5)c(Cl)c4)ncnc3s2)c1` the figure was 2.7%; with `CCc1cc(-c2onc(C)c2-c2cc3ccccc3o2)c(O)cc1OC`, 13.8%; with `COc1ccc(-c2ccc(NC(=O)c3ccccc3)cc2)cc1CN1CCCN(C)CC1`, 4.95%.
For `COc1ccccc1CN1CCC(NC(=O)c2ccc(-c3cccc(C(F)(F)F)c3)s2)CC1` the value was 13.8%; for `COc1cc(NC(=O)c2sc(-c3ccc(Cl)cc3)cc2NC(=O)CN2CC[C@@H](O)C2)ccc1OCCN1CCCC1`, 13%.
Regarding `CC1CCC2(CC1)N=C(N)N=C(N)N2OCc1cc2ccccc2c2ccccc12` (configuration not stated), the IFI was determined as 3.52%.
Consider `Nc1nc(N)c2c(ccc3c2ccn3Cc2cccc3ccccc23)n1`, for which the IFI turned out to be 5.84%.
For the compound `Nc1nc2ccc(S(=O)(=O)Nc3ccc(C(=O)N[C@@H](CCC(=O)O)C(=O)O)c(F)c3)cc2c(=O)[nH]1`, the IFI is 3.5%.
With `COc1ccccc1CNc1ccnc(N2CC(Oc3ccc(F)cc3)C2)n1` the figure was 4%; with `CCn1c(Sc2ccc(C#N)c([N+](=O)[O-])c2)nnc1-c1cccc(Cl)c1`, 1.43%; with `N#Cc1ccc2[nH]cc(-c3cn4cc(SC5CCCC5)ccc4n3)c2c1`, 0.69%.
With `c1ccc2[nH]c(Nc3ccc(Nc4nc5ccccc5[nH]4)cc3)nc2c1` the figure was 15%; with `COc1ccc2ncc(F)c(CCN3CC[C@H](NCc4cc5c(s4)CCCN5)[C@H](O)C3)c2n1`, 0.74%.
Regarding `CC1CN(c2cnn(Cc3cccc(NC(=O)Nc4cccc(C(F)(F)F)c4)c3)c(=O)c2Cl)CC(C)N1` (configuration not stated), the IFI amounted to 1.36%.
For `Cc1cccc2nc(-c3cccc(-c4ccc(NC(=O)Nc5ccc6c(c5)OCO6)cc4)c3)[nH]c12` the value was 4.95%.
With `COc1c(C2CCN(CCCCNC(=O)c3cc(-c4ccc(Cl)cc4)oc3C)CC2)ccc2c1CCCC2` the figure was 11.4%.
With `O=C(Nc1cc(Cl)cc(Cl)c1)N[C@H]1CCN(CCCCCNC(=O)C2CC2c2ccc(Cl)c(Cl)c2)C1` (some centres not stated) the figure was 13.3%; with `CC1(C)N=C(N)N=C(N)N1c1ccc2ccccc2c1`, 0%.
In turn, `COC(=O)c1ccccc1N1CCN(CCCCNC(=O)c2ccc(NC(=O)c3cc(Cl)cc(Cl)c3)cc2)CC1` came in with an IFI of 1.77%.
With `CCC(C(C)C)n1ccc2c3c(N)nc(N)nc3ccc21` (configuration not stated) the figure was 9.24%; with `CC(C)(C)c1cc(NC2CC2)nc(-c2ccccn2)n1`, 7.89%; with `CC(C)[C@H](NC(=O)NC1CCC(CCN2C3CCC2CC(OC(=O)C(CO)c2ccccc2)C3)CC1)C(O)(c1ccccc1)c1ccccc1` (some centres not stated), 3.88%.
With `COCn1ncc2cc(-c3cccc(NC(=O)c4csc(NC(C)=O)n4)c3)ccc21` the figure was 7.22%; with `COc1cccc(-c2cccc(CNC3CCN(CC4Cn5c(=O)ccc6ccc(F)c4c65)CC3)c2)c1` (configuration not stated), 3.64%.
`O=c1[nH]ccc2nc(N[C@@H]3CCNC3)nc(Nc3cccc(S(=O)(=O)N4CCOCC4)c3)c12` gave an IFI of 18.2%.
For `O=C(/C=C/c1ccc(Cl)c(Cl)c1)NCCCCCN1CCC(NC(=O)Nc2ccccc2F)CC1` the value was 2.52%; for `Cc1cc(Nc2cccc(Cl)c2)nc2ccc(NC(=O)c3ccc(=O)[nH]c3)cc12`, 7.25%.
Turning to `CC1CC(C)CN(CC(O)CNC(=O)Nc2ccc(Br)cc2)C1` (configuration not stated), the IFI amounted to 2.76%.
